B1: coaD V32A (protein)
chain: MQKRAIYPGTFDPITNGHIDIVTRATQMFDHAILAIAASPSKKPMFTLEERVALAQQATAHLGNVEVVGFSDLMANFARNQHATVLIRGLRAVADFEYEMQLAHMNRHLMPELESVFLMPSKEWSFISSSLVKEVARHQGDVTHFLPENVHQALMAKLA
B2: coaD V32W (protein)
chain: B1 chain with A32W
B3: coaD V32D (protein)
chain: B1 chain with A32D
B4: coaD V32Q (protein)
chain: B1 chain with A32Q
B5: cysB L161A (protein)
chain: MKLQQLRYIVEVVNHNLNVSSTAEGLYTSQPGISKQVRMLEDELGIQIFSRSGKHLTQVTPAGQEIIRIAREVLSKVDAIKSVAGEHTWPDKGSLYIATTHTQARYALPNVIKGFIERYPRVSLHMHQGSPTQIADAVSKGNADFAIATEALHLYEDLVMAPCYHWNRAIVVTPDHPLAGKKAITIEELAQYPLVTYTFGFTGRSELDTAFNRAGLTPRIVFTATDADVIKTYVRLGLGVGVIASMAVDPVADPDLVRVDAHDIFSHSTTKIGFRRSTFLRSYMYDFIQRFAPHLTRDVVDAAVALRSNEEIEVMFKDIKLPEK
B6: cysB V172A (protein)
chain: B5 chain with A161L, V172A
B7: cysB V172Q (protein)
chain: B5 chain with A161L, V172Q
B8: cysB V172P (protein)
chain: B5 chain with A161L, V172P
B9: cysB V172W (protein)
chain: B5 chain with A161L, V172W
B10: cysB V171W (protein)
chain: B5 chain with A161L, V171W
B11: cysB L161Q (protein)
chain: B5 chain with A161Q
B12: cysB L161D (protein)
chain: B5 chain with A161D
B13: cysB V221A (protein)
chain: B5 chain with A161L, V221A
B14: cysB V171A (protein)
chain: B5 chain with A161L, V171A
B15: cysB L161W (protein)
chain: B5 chain with A161W
B16: accA I116W (protein)
chain: MSLNFLDFEQPIAELEAKIDSLTAVSRQDEKLDINIDEEVHRLREKSVELTRKIFADLGAWQIAQLARHPQRPYTLDYVRLAFDEFDELAGDRAYADDKAIVGGIARLDGRPVMIWGHQKGRETKEKIRRNFGMPAPEGYRKALRLMQMAERFKMPIITFIDTPGAYPGVGAEERGQSEAIARNLREMSRLGVPVVCTVIGEGGSGGALAIGVGDKVNMLQYSTYSVISPEGCASILWKSADKAPLAAEAMGIIAPRLKELKLIDSIIPEPLGGAHRNPEAMAASLKAQLLADLADLDVLSTEDLKNRRYQRLMSYGYA

Where a chain is given by its changes, count along the chain named. Names and notes keep the numbering of the source. ± gives the standard deviation of the averaged measurements. Laboratory Escherichia coli strains with one amino-acid change in an essential protein, pooled on minimal glucose agar with carbenicillin or gentamicin at twice the control MIC (plus kanamycin and chloramphenicol for the plasmids), 48 h. Fold change of barcode share against drug-free plates; higher = less susceptible. Active = above 20 in both replicates (the paper's putatively resistant). '<' = one read or none on drug, '>' = one read or none on a drug-free plate. Shares are relative, so most strains fall below 1 when a few take over. Listed are strains with at least 15 reads on both drug-free plates, and hits; most hits rest on fewer reference reads. Replicate rank correlation about 0.5. Edits are read from barcodes.

In the first data set the target is Escherichia coli (laboratory strain). Nature of the data set: barcode share on antibiotic plates over drug-free plates; higher = less susceptible. Conditions: antibiotic: carbenicillin; 2× MIC (3.1 µg/mL). As for the experimental part: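 A pool of E. coli strains, each edited to carry one amino-acid change in an essential protein, was grown for 48 h on minimal glucose agar with or without antibiotic; strain barcodes were sequenced; mean of two replicates.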
Consider B1, for which the “fold change of barcode share” value is 0.225 ± 0.11. The same measure, in the same setting: the value for B2 was 0.238 ± 0.12. Consider B3, for which the “fold change of barcode share” value amounted to 0.298 ± 0.031. On the same count and under the same terms, the figure for B4 is 0.201 ± 0.0084; for B5 it is 0.468 ± 0.34; for B6 it is 0.21 ± 0.023. Still for that read-out and setting: the value for B7 was 0.263 ± 0.1; that for B8 was 0.54 ± 0.072. On the same count and under the same terms, the figure for B9 is 0.454 ± 0.49. With B10, the “fold change of barcode share” value is 0.198 ± 0.0059. Same read-out and setting: the figure for B11 is 0.856 ± 0.41.

With B12, the “fold change of barcode share” value came to 0.331 ± 0.11. On the same count and under the same terms, the value for B13 was 0.517 ± 0.11; that for B14 was 0.427 ± 0.2. B15: the “fold change of barcode share” value is 0.698 ± 0.18. The same measure, in the same setting: the value for B16 was 0.555 ± 0.22.

Still in this data set, the particulars now being: antibiotic: gentamicin; 2× MIC (MIC 0.45 µg/mL).
Take B1: the “fold change of barcode share” value was under 0.0206. In the case of B2, the “fold change of barcode share” value was under 0.00969. Take B3: the “fold change of barcode share” value was 0.0165 ± 0.011.

Take B4: the “fold change of barcode share” value is under 0.0167. The same measure, in the same setting: the value for B5 was 0.149 ± 0.16. The same measure, in the same setting: the value for B6 was 0.0181 ± 0.01; that for B7 was 0.072 ± 0.046; that for B9 was under 0.0124.

Take B10: the “fold change of barcode share” value stood at 0.0445 ± 0.055. Same read-out and setting: the value for B11 was 0.0948 ± 0.096. Consider B12, for which the “fold change of barcode share” value was 0.0116 ± 0.0087. For B13, the “fold change of barcode share” value came out at 0.01493 ± 7.1e-05. Still for that read-out and setting: the figure for B14 is under 0.00879; for B15 it is 0.0164 ± 0.011. Same read-out and setting: the figure for B16 is under 0.00868.

For the origin of these results see the supplement of paper PMC11876631.
